The source of these data is PubChem BioAssay AID463173 (ICCB-Longwood Screening Facility, Harvard Medical School, 2010).

Screen size: about 52,000 compounds; about 1,700 (3.3%) were called active. No stated cut-off is given here; in the data, active means survival mostly below about 52% (no sharp cut-off); inactive means mostly above about 56%. Some of the results follow.

The experiment has as its system Wild type. Briefly: growth inhibition of S. aureus wild type versus tarO mutant, primary screen, teichoic acid synthesis inhibitors, RN4220, OD600 (AID 463173). The note with it: S. aureus RN4220 wild type/DeltatarO growth, OD600, 18 h, hits give low values, screened at 18.75 µg/mL (by protocol).
On to `Cc1oc2c(C)c3oc(=O)c(CC(=O)N4CCCCC4)c(C)c3cc2c1C`, for which the survival is inactive: 83%. Under `CCc1nn(C(C)C(=O)N2CCN(c3ccccc3)CC2)c(=O)c2cc3occc3n12` (stereo unspecified) stands inactive: 89%; under `CSc1ccc(CCNC(=O)c2ccc3c(Cl)c4c(nc3c2)CCCC4)cc1`, inactive: 78%; under `CCCSc1ncc(Cl)c(C(=O)Nc2nc3ccc(C)cc3s2)n1`, inactive: 76%. The same measure for `CC1(C)CC(n2c(SCC#N)nc3c(c2=O)C2(CCCC2)Cc2ccccc2-3)CCO1` (stereo unspecified): inactive: 118%; for `Cc1nn2c(=O)cc(COC(=O)c3cccs3)nc2s1`: inactive: 68%; for `CCc1ccccc1NC(=O)Cn1nc(C(F)(F)F)c2c1CCC2`: inactive: 74%. As for `Cc1cc(C)c2c(CC(=O)Nc3ccccc3C(F)(F)F)coc2c1`, the survival was inactive: 91%. Take `CN(C)c1ccc(C(CNS(=O)(=O)c2ccc(Cl)cc2)N2CCOCC2)cc1` (stereo unspecified): the survival was active: 10%.

`Cc1cccc(NC(=O)C2CCN(c3nnc(C)c4c(C)n(-c5ccccc5)nc34)CC2)c1C`: the survival is inactive: 68%. Under `O=C(NCc1ccccc1)C(=O)NCC(c1ccco1)S(=O)(=O)c1cccs1` (stereo unspecified) stands inactive: 70%. On to `Cc1ccc(Cl)cc1NC(=O)C1CCCN(c2cnccn2)C1` (stereo unspecified), for which the survival is inactive: 91%. Under `CCc1nn(CC(=O)Nc2cccc(C(C)=O)c2)c(=O)c2cc3sccc3n12` stands inactive: 78%. Under `O=C(CCn1c(=O)c2ccccc2n(Cc2cccc(Cl)c2)c1=O)NCCc1ccccc1` stands inactive: 74%; under `CCOC(=O)c1ccccc1NC(=O)Cn1c(=O)n(Cc2nc(C)no2)c(=O)c2ccccc21`, inactive: 73%. Under `CN(c1ccccc1C(=O)O)S(=O)(=O)c1ccc2[nH]c(=O)oc2c1` stands inactive: 80%; under `CCOC(=O)c1c(S(=O)(=O)N2CCC(C(=O)NCc3ccccc3OC)CC2)c(C)n(C)c1C`, inactive: 70%. With `CCCCSCCCNC(=O)c1cn(C)c2ccc(S(=O)(=O)N3CCCC3)cc2c1=O`, the survival was inactive: 85%. The same measure for `Cc1cc(C)cc(OCC(=O)N(Cc2ccc(Cl)cc2)CC2CCCO2)c1` (stereo unspecified): inactive: 69%.

Regarding `Cc1ccc(CNC(=O)CCCCn2c(=O)c3ccccc3n(Cc3ccc(C)cc3)c2=O)cc1`, the survival is inactive: 80%.

With `CC(=O)Nc1ccc2[nH]c(C)cc(=O)c2c1`, the survival was inactive: 103%.

With `O=C(NC1CCCC1)c1ccc2c(=O)n(Cc3ccccc3)c(SCc3ccccc3)nc2c1`, the survival is inactive: 83%. For `Cc1ccc(-n2nc(C(=O)Nc3ccc(C)c(F)c3)c(=O)n(C)c2=O)cc1`, the survival was inactive: 68%. Under `COc1ccc(-c2nc3ccc(C)cn3c2Nc2ccc3c(c2)OCO3)cc1` stands inactive: 89%. In the case of `COc1ccc(N2CCN(CCCNC(=O)c3cc(Nc4ccccc4OC)nc4ccccc34)CC2)cc1`, the survival is inactive: 83%. Under `COc1cc(C(=O)N2CCN(c3ccc(Nc4ccccc4)nn3)CC2)cc(OC)c1OC` stands inactive: 59%.

Take `Cc1ccc(-n2nnnc2CNC(=O)c2ccccc2)cc1C`: the survival is inactive: 148%. In the case of `Cc1ccc(Nc2nc(Nc3ccc(C)c(C)c3)nc(N3CCOCC3)n2)cc1C`, the survival was inactive: 73%.

As to `CCc1cccc(C)c1NC(=O)C1CCN(S(=O)(=O)Cc2ccccc2)CC1`, the survival was inactive: 86%.

Regarding `CC1CCCCN1S(=O)(=O)c1cc2c3c(c1)CC(=O)N3CCC2` (stereo unspecified), the survival is inactive: 78%.

As to `O=C(Cn1c(-c2cccs2)cc2ccccc21)NCc1ccccc1Br`, the survival is inactive: 120%. Under `COc1ccc(N2CC(NC(=O)COc3ccc4ccccc4c3)CC2=O)cc1` (stereo unspecified) stands inactive: 87%; under `O=C(Cn1c(=O)n(Cc2ccc(C(=O)NCc3ccccc3Cl)cc2)c(=O)c2ccccc21)Nc1ccc(F)c(Cl)c1`, inactive: 78%; under `Cc1cccc(CNC(=O)CN2C(=O)CCCc3ccccc32)c1`, inactive: 77%. The same measure for `Cc1ccc(-c2nc(CS(=O)(=O)CC(=O)NCc3ccccc3Cl)c(C)o2)cc1`: inactive: 77%; for `CN(C)S(=O)(=O)c1ccc2c(c1)N(CC(=O)N1CCN(c3ccccc3F)CC1)CCS2`: inactive: 123%. The same measure for `CCc1cccc(C)c1NC(=O)CN1C(=O)C2(SCC(=O)N2c2cc(C)cc(C)c2)c2ccccc21` (stereo unspecified): inactive: 72%; for `COc1cccc(C(=O)Nc2ccccc2-c2nc3ccccc3s2)c1`: inactive: 42%. In the case of `CCOC(=O)c1oc2ccccc2c1NC(=O)CN1CCOCC1`, the survival is inactive: 105%. Under `CC1=C(C(=O)Nc2cccc(C(F)(F)F)c2)C2(CCCCC2)OC1=O` stands inactive: 88%; under `CCNC(=O)CCSc1nc2cc(Cl)ccc2o1`, inactive: 110%. The same measure for `Cc1oc(-c2cccc(Cl)c2)nc1CN1CCCC(C(=O)NCc2ccc(Cl)cc2)C1` (stereo unspecified): active: -1%. Under `Cc1ccccc1CNC(=O)c1sc2ncnc(N(C)C3CCCCC3)c2c1C` stands inactive: 73%; under `O=S(=O)(c1ccc2[nH]c3c(c2c1)CCCCC3)N1CCN(c2cccc(Cl)c2)CC1`, inactive: 78%. With `Cc1cccc(NC(=O)c2sc(-n3nc(C)c(CCC(C)C)c3C)nc2C)c1C`, the survival was inactive: 91%. Under `COc1cc(OC)cc(C(=O)Nc2cccc(-c3cn4cccnc4n3)c2)c1` stands inactive: 127%; under `COc1cc2[nH]c(=O)c(C(=O)NCCN3CCNCC3)c(O)c2cc1OC`, inactive: 107%.

Turning to `Cc1ccc2c(c1C)NC(C(=O)O)C1CC=CC21` (stereo unspecified), the survival was inactive: 72%.

For `CCCOc1ccc(NC(=O)CC2C(=O)N(c3ccc(C)cc3)C(=O)N2Cc2cccc(OC)c2)cc1` (stereo unspecified), the survival is inactive: 64%.

As for `O=C1NC2(CCCCC2)C(=O)N1c1ccc(C(F)(F)F)cc1`, the survival was inactive: 106%. Under `COc1ccc(NC(=O)CN2C(=O)c3ccccc3Sc3ccc(C(=O)N4CCOCC4)cc32)c(OC)c1` stands inactive: 76%; under `CCOC(=O)C1CCN(c2c(C(=O)c3ccc(C)cc3)cnc3ccc(F)cc23)CC1`, active: 3%.

Regarding `O=c1c2cc3c(nc2ncn1Cc1ccc(Cl)cc1)CCCC3`, the survival was inactive: 76%.

As to `COc1cc(NC(=O)c2cccc(F)c2)ccc1NC(=O)c1cc2ccccc2o1`, the survival was inactive: 80%. The same measure for `CCOc1ccccc1NC(=O)CN1CCCN(Cc2cccc(Cl)c2)S1(=O)=O`: inactive: 70%; for `O=C(O)C(c1ccccc1)N1CCCC1` (stereo unspecified): inactive: 89%. Under `COc1cc(C(=O)OCc2cc(=O)n3nc(C(C)C)sc3n2)cc(OC)c1OC` stands inactive: 78%; under `CCc1ccc(NC(=O)c2nnn(Cc3cccc(C(F)(F)F)c3)c2N)cc1`, inactive: 84%.

In the case of `COc1cccc(CNC(=O)c2ccc3c(c2)nc2n3CCCCC2)c1OC`, the survival was inactive: 55%. The same measure for `COc1cccc(CNC(=O)COCc2cc(-c3ccc4c(c3)OCO4)on2)c1`: inactive: 32%; for `CC1CCC2(CC1)N=C(c1ccccc1)C(=O)N2CC(=O)Nc1ccc(F)c(Cl)c1` (stereo unspecified): inactive: 67%; for `CCOC(=O)c1cccc(NS(=O)(=O)c2cc3[nH]c(=O)c(=O)[nH]c3cc2C)c1`: inactive: 68%.

Consider `Cc1nc2ncnn2c(C)c1CCC(=O)N1CCN(c2cccc(Cl)c2)CC1`, for which the survival was inactive: 72%. Under `Cc1cccc(-n2c(C)nc3cc(C(=O)NC4CCCCCC4)ccc32)c1` stands inactive: 80%; under `COc1ccc(NC(=O)Nc2c[nH]c(=O)[nH]c2=O)c(OC)c1`, inactive: 70%; under `CCc1ccc(NC(=O)C2=CC(c3ccc4c(c3)OCO4)=NS(=O)(=O)N2C)cc1`, inactive: 96%. In the case of `CC(NC1=NCCN1)C(=O)O` (stereo unspecified), the survival was inactive: 104%. The same measure for `Cc1c(C(=O)N(Cc2ccc(Cl)cc2)CC2CCCO2)oc2ccc(F)cc12` (stereo unspecified): inactive: 77%; for `COc1ccccc1CNC(=O)CSc1ncc2c(n1)-c1cc(Cl)ccc1N(Cc1ccccc1)S2(=O)=O`: inactive: 73%.

In the case of `CCOc1ccc(-c2nc(SCC(=O)NCCCOC)c(-c3ccccc3)[nH]2)cc1`, the survival is inactive: 141%. The same measure for `CCn1c(CN2CCOCC2)nc2cc(NC(=O)c3ccc([N+](=O)[O-])cc3)ccc21`: inactive: 90%. Under `Cc1ccc2c(c1)cc(CN(Cc1ccco1)C(=O)N(C)C)c1nnnn12` stands inactive: 107%; under `CSc1ccc(CC2C(=O)Nc3ccccc32)cc1` (stereo unspecified), inactive: 73%. The same measure for `CCN(CC)C(=O)Cn1cc(/C=C(\C#N)C(N)=O)c2ccccc21`: inactive: 124%. For the compound `COC(=O)CSc1nnc(-c2ccccc2)n1C`, the survival was inactive: 102%. Regarding `O=C(Cc1ccccc1F)N1CCC(c2nc3c(nnn3Cc3ccc(F)cc3)c(=O)[nH]2)CC1`, the survival was inactive: 98%. Under `O=C(CS(=O)(=O)c1cccc2nsnc12)Nc1cc(F)ccc1F` stands inactive: 97%.

Turning to `CC(=O)/C=C(\C)Nc1ccccc1S`, the survival was inactive: 114%. Under `COc1cc2c(-c3ccc(C)cc3)nc3c(c(C)nn3-c3ccccc3)c2cc1OC` stands inactive: 71%; under `N#C/C(=C\c1ccccc1)C(=O)Nc1sc2c(c1C(N)=O)CCC2`, inactive: 75%.

As for `CC(C)Oc1ccc(CNC(=O)c2cnc3sc(N4CCCCC4)nn3c2=O)cc1`, the survival is inactive: 135%. As for `CCc1ccccc1NC(=O)C1COc2ccccc2C1` (stereo unspecified), the survival was inactive: 83%. As for `Cn1cnc(S(=O)(=O)N2CCC(C(=O)N3CCN(c4ccc(Cl)cc4)CC3)CC2)c1`, the survival is inactive: 32%. Under `O=C(Cc1cccs1)NC1CCN(Cc2ccccc2)CC1` stands inactive: 97%; under `CC(=O)Nc1ccc(-n2c(CCC(=O)O)ccc2-c2ccc(C)cc2)cc1`, inactive: 81%. Consider `CCOC(=O)c1oc2ccc(S(=O)(=O)n3nc(-c4cc(OC)cc(OC)c4)cc3N)cc2c1C`, for which the survival was inactive: 125%. Under `CCc1ccc(Sc2cc(C(=O)NCCCOC(C)C)c3ccccc3n2)cc1` stands inactive: 71%; under `Cc1cc(C)cc(OCC(=O)Nc2ccc(Cl)c(-c3nc4ncccc4o3)c2)c1`, inactive: 33%.

With `N#Cc1ccc(OC(=O)c2cc(-c3ccc4c(c3)OCCO4)on2)cc1`, the survival was inactive: 117%.

For the compound `CCCOC(=O)c1cc(=O)[nH]c2ccccc12`, the survival is inactive: 108%. The same measure for `CCCn1c(=O)c2sccc2n2c(CCCC(=O)N3CCN(c4cccc(C)c4C)CC3)nnc12`: inactive: 88%.
